# Screen size: about 420,000 compounds; about 64,000 (15%) were called active. The inconclusive results got no clear call from the source; some entries with a clear call stand among them for comparison. Calls follow the shape of the dose curve; as a rule, active = well fitted inhibition curve with a large enough effect; inconclusive = small, poorly fitted or top-dose-only effect; inactive = flat fitted curve, though single readings scatter. No potency is given beside an inconclusive call; the fits are too rough.
# Assay: qHTS for Inhibitors of human tyrosyl-DNA phosphodiesterase 1 (TDP1): qHTS in cells in absence of CPT; also: nearly all actives have a fitted effect of over 55% in size
# Details: DT40 Tdp1-/- hTDP1 cells, no CPT, ATP luminescence, 48 h; series mostly up to 46.2 µM
# Method in brief: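 Luminescent ATP content (CellTiter-Glo) served as the growth readout. Knockout chicken DT40 cells expressing human TDP1 were exposed to compounds without camptothecin for a minimum 48 hr at 37 °C.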
# Potency is read from the fitted curve at half-maximal effect; tags tell the direction and shape of the fitted curve.
row,Compound,Potency
1,CCCc1c(C(=O)O)cnn1-c1ccc(Cl)cc1,inactive
2,CCNC(=S)N1CCC(NC(=O)C2CCCCC2)CC1,inactive
3,CC1CCN(S(=O)(=O)c2ccc(C(C)C)cc2)CC1,"inconclusive [inhibitor, single point]"
4,O=c1cc(-c2ccc(O)c(O)c2)oc2cccc(O)c12,"inconclusive [inhibitor, partial curve, poor fit]"
5,O=C(N/N=C/c1ccc(OC(=O)c2ccccc2)cc1)c1cccc(O)c1,active: 16.4 µM
6,Cc1ccc(S(=O)(=O)Cc2ccc(C(=O)N3CCN(c4ccccn4)CC3)o2)cc1,"inconclusive [inhibitor, single point]"
7,Cc1ccc(NS(=O)(=O)c2ccc(-c3coc(C)n3)cc2)c(Br)c1,inactive
8,CCCc1nc2ccc(C)cn2c1Cc1ccc(C)cc1,active: 18.4 µM
9,CCCOc1ccc(NC(=O)CC2Nc3ccccc3NC2=O)cc1 (stereo unspecified),"inconclusive [inhibitor, partial curve, poor fit]"
10,COc1cc(OC)c2c(C)cc(=O)oc2c1C(CCN1CCOCC1)c1ccc2c(c1)OCO2 (stereo unspecified),active: 20.6 µM
11,CCN(C[C@H]1N[C@@](Cc2ccccc2)(C(=O)OC)[C@H]2C(=O)N(Cc3ccccc3)C(=O)[C@@H]12)C(=O)NC(C)C,"inconclusive [inhibitor, single point]"
12,COc1ccc(N(CN2C(=O)C3CCCCC3C2=O)C(=O)c2ccco2)cc1 (stereo unspecified),inactive
13,COC(=O)c1ccccc1NC(=O)C1CC(=O)N(c2ccc(C)c(C)c2)C1 (stereo unspecified),inactive
14,O=C(COC(=O)c1cc([N+](=O)[O-])ccc1N1CCOCC1)Nc1ccc(Cl)cn1,"inconclusive [inhibitor, single point]"
15,Cc1ccc(OCc2ccc(C(=O)NCC3CCCO3)cc2)cc1C (stereo unspecified),"inconclusive [inhibitor, single point]"
16,CC(C)Cn1c(SCC(=O)NC2CC2)nc2ccccc21,"inconclusive [inhibitor, single point]"
17,COc1ccccc1-c1cc(NCc2cccs2)ncn1,"inconclusive [inhibitor, single point]"
18,CC(C)(C)c1ccc(NC(=O)COc2ccc(-n3ccnc3)cc2)cc1,active: 16.4 µM
19,Cc1ccc(-c2noc(C3CCCN(C(=O)C4CCCCC4)C3)n2)o1 (stereo unspecified),"inconclusive [inhibitor, single point]"
20,CC1=C(C(=O)Nc2cccc(C(F)(F)F)c2)C2(CCCCCC2)OC1=O,"inconclusive [inhibitor, single point]"
21,Cc1cc(C)cc(C(O)c2ncc(-c3ccc(C(F)(F)F)cc3)[nH]2)c1 (stereo unspecified),active: 16.4 µM
22,O=C(NCCC1=CCCCC1)c1ccc(Cl)c([N+](=O)[O-])c1,active: 16.4 µM
23,O=C(Nc1cc2c(cc1Br)OCCCO2)c1ccccc1,inactive

row,Compound,Potency
1,Cc1ccc(C(=O)OCC(=O)N2CCC(c3ccccc3)=N2)cc1,"inconclusive [inhibitor, single point]"
2,O=C(N/N=C\c1cc(Br)cs1)c1ccncc1,"inconclusive [inhibitor, single point]"
3,CC(C)N(Cc1ccccc1)C(=S)NCc1ccccc1,"inconclusive [inhibitor, single point]"
4,O=C(N/N=C/C=C/c1ccco1)c1cnccn1,inactive
5,O=C(Nc1cc(C(F)(F)F)ccc1N1CCOCC1)c1c(F)c(F)c(F)c(F)c1F,"inconclusive [inhibitor, single point]"
6,O=C(NCc1ccccn1)c1nn(-c2ccccc2F)nc1CO,inactive
7,CC(=O)c1ccc(N2CCN(C(=O)C3CCCN(S(=O)(=O)c4c(C)[nH]c(=O)[nH]c4=O)C3)CC2)cc1 (stereo unspecified),"inconclusive [inhibitor, single point]"
8,Cc1cc(C)cc(C(=O)N2CCC(C(N)=O)CC2)c1,inactive
9,COc1ccc(OCC(CO)N2CCN(c3ccccc3)CC2)cc1 (stereo unspecified),inactive
10,COc1ccc(-c2cc(=O)c3cc(OC)ccc3[nH]2)cc1,"inconclusive [inhibitor, full curve, poor fit]"
11,COc1cc(CN2CCN(S(=O)(=O)c3ccc(F)cc3)CC2)cc(OC)c1OC,"inconclusive [inhibitor, single point]"
12,CCOc1ccccc1CN1CCc2nc(Nc3ccccc3)ncc2C1,"inconclusive [inhibitor, single point]"
13,Fc1ccccc1C1=NC(c2ccc(C(F)(F)F)cc2)=Nc2ccccc2N1,"inconclusive [inhibitor, single point]"
14,O=C1N(Cc2cccnc2)C[C@@H]2C[C@@H](c3ccccc3C#Cc3ccccc3)N3CCC[C@@]123,active: 16.4 µM
15,COc1ccccc1NS(=O)(=O)c1cc(NC(=O)c2ccc(Cl)nc2)ccc1Cl,active: 7.31 µM
16,O=C(NCCc1cccs1)C(c1ccccc1)c1ccccc1,"inconclusive [inhibitor, single point]"
17,CN(C)CCn1c2c(c(SCC(=O)Nc3ccccc3C(F)(F)F)nc1=O)CCCC2,"inconclusive [inhibitor, single point]"
18,CC(=O)OC1CCC2C3CCc4cc(OP(=O)(N5CC5)N5CC5)ccc4C3CCC12C (stereo unspecified),"inconclusive [inhibitor, single point]"
19,CCOC(=O)c1ccccc1NC(=O)CSc1ccccc1,"inconclusive [inhibitor, full curve, poor fit]"
20,O=C(c1ccccc1)N1CCN(C2c3cccc4cccc(c34)C2NS(=O)(=O)c2ccccc2)CC1 (stereo unspecified),"inconclusive [inhibitor, single point]"
21,COc1cccc(CNC(=O)CSc2n[nH]c(-c3ccccc3Cl)n2)c1,"inconclusive [inhibitor, partial curve]"
22,Cc1ccc(C)c(Cn2cnc3ccccc3c2=O)c1,"inconclusive [inhibitor, single point]"
23,Cc1scc(C(=O)NCc2ccco2)c1-c1ccccc1,"inconclusive [inhibitor, partial curve]"
